± gives the standard deviation of the averaged measurements. Over roughly 33,000 sequences, “E-score (dimensionless, -0.5 to 0.5)” has its median near -0.049; the highest 2% begin near 0.37. Some of the results follow.
Each sequence was assayed on T1, PmTbr T-box DNA-binding domain (GST fusion) (assay: PBM E-score of 8-mer (E-score (dimensionless, -0.5 to 0.5)); Tbr is Tbrain of the sea star Patiria miniata (Pm) or the sea urchin Strongylocentrotus purpuratus (Sp); higher = stronger binding preference; most listed sequences are background and not binding sites). Conditions: the construct has about 5 more residues each side.
T1 sequence: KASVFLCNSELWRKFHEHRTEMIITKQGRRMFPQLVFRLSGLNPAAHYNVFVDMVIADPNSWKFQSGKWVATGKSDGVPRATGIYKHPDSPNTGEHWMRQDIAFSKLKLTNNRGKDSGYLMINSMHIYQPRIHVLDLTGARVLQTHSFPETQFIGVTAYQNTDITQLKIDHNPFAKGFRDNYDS
Outline: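 Expression of GST-fused Tbr T-box DNA-binding domains, each holding the full T-box plus roughly five flanking residues, was carried out in BL21 E. coli at 20 °C, with purification by glutathione affinity chromatography. Universal Agilent arrays made double-stranded by primer extension were incubated with the protein at 200 nM in PBS (pH 7.5), then scanned and quantified. All ungapped 8-mers were scored from probe intensities, and each received an enrichment E-score from the Universal PBM Analysis Suite, averaged over duplicate arrays.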
For AGGTCTGC, the “PBM E-score of 8-mer” value was -0.287 ± 0.043.
With GTAACGGA the “PBM E-score of 8-mer” value was -0.104 ± 0.099.
In the case of AAGAGCTT, the “PBM E-score of 8-mer” value is reported as -0.317 ± 0.067.
For GTAAGGAC, the “PBM E-score of 8-mer” value was -0.177 ± 0.096.
For ACAGGACG, the “PBM E-score of 8-mer” value was 0.0722 ± 0.034.
For GTTTAAAC, the “PBM E-score of 8-mer” value was -0.152 ± 0.0054.
AATACTAC was tested, and the “PBM E-score of 8-mer” value was -0.191 ± 0.04.
ACGCTATC was tested, and the “PBM E-score of 8-mer” value was 0.139 ± 0.017.
AGTAGACG was tested, and the “PBM E-score of 8-mer” value was 0.0448 ± 0.06.
For GAAGTGTA, the “PBM E-score of 8-mer” value was 0.293 ± 0.028.
For CCTCCGTC, the “PBM E-score of 8-mer” value was -0.0799 ± 0.048.
For GCGTGCCA, the “PBM E-score of 8-mer” value was 0.163 ± 0.015.
In the case of ATACTATC, the “PBM E-score of 8-mer” value is reported as -0.157 ± 0.018.
With GATTCCAA the “PBM E-score of 8-mer” value was 0.0116 ± 0.028.
With CCCAGGAC the “PBM E-score of 8-mer” value was -0.0782 ± 0.0074.
With CGTGTAAG the “PBM E-score of 8-mer” value was 0.0567 ± 0.055.
For TATGACCA, the “PBM E-score of 8-mer” value was -0.0597 ± 0.049.
GCTCGTCA was tested, and the “PBM E-score of 8-mer” value was 0.00998 ± 0.053.
In the case of GGCTAACC, the “PBM E-score of 8-mer” value is reported as -0.0286 ± 0.053.
In the case of CTAATGTA, the “PBM E-score of 8-mer” value is reported as -0.242 ± 0.039.
In the case of GAAGAAAC, the “PBM E-score of 8-mer” value is reported as -0.177 ± 0.024.
With AAACTAAA the “PBM E-score of 8-mer” value was -0.174 ± 0.086.
For ACAGCTAC, the “PBM E-score of 8-mer” value was 0.115 ± 0.032.
In the case of GTAGGTAA, the “PBM E-score of 8-mer” value is reported as -0.141 ± 0.024.
With TAACCACA the “PBM E-score of 8-mer” value was 0.105 ± 0.028.
For ATAACGCA, the “PBM E-score of 8-mer” value was 0.0162 ± 0.034.
For CCGGAAAG, the “PBM E-score of 8-mer” value was -0.184 ± 0.016.
In the case of TGTAAACA, the “PBM E-score of 8-mer” value is reported as 0.15 ± 0.029.
For CATCGCTA, the “PBM E-score of 8-mer” value was 0.157 ± 0.0021.
CGGGAAAG was tested, and the “PBM E-score of 8-mer” value was -0.0396 ± 0.06.
For ACGGTCAT, the “PBM E-score of 8-mer” value was 0.00306 ± 0.057.
For CTCTGACC, the “PBM E-score of 8-mer” value was -0.243 ± 0.018.
For CTTCTGTC, the “PBM E-score of 8-mer” value was -0.0727 ± 0.057.
In the case of CGCATTTC, the “PBM E-score of 8-mer” value is reported as -0.103 ± 0.14.
In the case of ACATGTAC, the “PBM E-score of 8-mer” value is reported as -0.0175 ± 0.042.
For ACCCATGA, the “PBM E-score of 8-mer” value was -0.0699 ± 0.0078.
In the case of ACCCCCGA, the “PBM E-score of 8-mer” value is reported as -0.0696 ± 0.058.
In the case of GCATACCA, the “PBM E-score of 8-mer” value is reported as -0.0714 ± 0.0053.
TGGATCAA was tested, and the “PBM E-score of 8-mer” value was -0.0192 ± 0.0014.
ACGGATGC was tested, and the “PBM E-score of 8-mer” value was -0.133 ± 0.037.
With CCAAATCA the “PBM E-score of 8-mer” value was 0.153 ± 0.063.
In the case of CACGGAGC, the “PBM E-score of 8-mer” value is reported as -0.0154 ± 0.019.
GGACGTAA was tested, and the “PBM E-score of 8-mer” value was -0.214 ± 0.024.
GGGAACTA was tested, and the “PBM E-score of 8-mer” value was -0.076 ± 0.067.
With GATGAAGA the “PBM E-score of 8-mer” value was -0.134 ± 0.051.
GGCTCCAA was tested, and the “PBM E-score of 8-mer” value was -0.1339 ± 0.00023.
For AGAGTGGC, the “PBM E-score of 8-mer” value was 0.0876 ± 0.017.
In the case of GAGCCCGC, the “PBM E-score of 8-mer” value is reported as 0.051 ± 0.0011.
ATCGCATC was tested, and the “PBM E-score of 8-mer” value was 0.0618 ± 0.032.
With AGTCTGTA the “PBM E-score of 8-mer” value was -0.0833 ± 0.076.
For ATAGACCC, the “PBM E-score of 8-mer” value was -0.272 ± 0.003.
CAGTCGAC was tested, and the “PBM E-score of 8-mer” value was 0.0406 ± 0.057.
For ACAACTAC, the “PBM E-score of 8-mer” value was 0.08361 ± 0.0003.
With GTAGTAAA the “PBM E-score of 8-mer” value was -0.137 ± 0.0077.
In the case of GGGGCCTA, the “PBM E-score of 8-mer” value is reported as -0.0886 ± 0.09.
In the case of CTATCAAG, the “PBM E-score of 8-mer” value is reported as -0.14 ± 0.049.
In the case of GTCTTCAC, the “PBM E-score of 8-mer” value is reported as 0.234 ± 0.013.
For GTCTTCCA, the “PBM E-score of 8-mer” value was -0.193 ± 0.014.
With ACATAATG the “PBM E-score of 8-mer” value was 0.0544 ± 0.014.
For ATAATTAC, the “PBM E-score of 8-mer” value was -0.0232 ± 0.018.
ACGATAAT was tested, and the “PBM E-score of 8-mer” value was -0.139 ± 0.11.
With GCACGTAA the “PBM E-score of 8-mer” value was -0.0394 ± 0.038.
For ATCCGCAG, the “PBM E-score of 8-mer” value was -0.171 ± 0.0028.
For CGCTATAG, the “PBM E-score of 8-mer” value was -0.0732 ± 0.033.
In the case of AAGGACAG, the “PBM E-score of 8-mer” value is reported as -0.208 ± 0.028.
For GTTAGGTA, the “PBM E-score of 8-mer” value was -0.00675 ± 0.069.
In the case of ATATCGTA, the “PBM E-score of 8-mer” value is reported as -0.136 ± 0.063.
CTGCGAAC was tested, and the “PBM E-score of 8-mer” value was 0.324 ± 0.013.
With AGATATAC the “PBM E-score of 8-mer” value was -0.123 ± 0.01.
With AATGGAGG the “PBM E-score of 8-mer” value was 0.0939 ± 0.018.
In the case of ATAGAGCC, the “PBM E-score of 8-mer” value is reported as -0.165 ± 0.019.
In the case of ACAGGAGG, the “PBM E-score of 8-mer” value is reported as -0.123 ± 0.023.
In the case of GCGACGGA, the “PBM E-score of 8-mer” value is reported as 0.0845 ± 0.023.
For GGCAGGTA, the “PBM E-score of 8-mer” value was -0.0237 ± 0.036.
In the case of CCAAGGTA, the “PBM E-score of 8-mer” value is reported as -0.0802 ± 0.049.
In the case of AAAGACTC, the “PBM E-score of 8-mer” value is reported as -0.156 ± 0.018.
With ATATTAGA the “PBM E-score of 8-mer” value was -0.129 ± 0.079.
With GTGTTAAA the “PBM E-score of 8-mer” value was 0.429 ± 0.021.
For CCATGCCG, the “PBM E-score of 8-mer” value was 0.0918 ± 0.063.
With AAAGGAGA the “PBM E-score of 8-mer” value was 0.0694 ± 0.069.
In the case of ACCGGCTA, the “PBM E-score of 8-mer” value is reported as -0.11 ± 0.063.
GCTTGACC was tested, and the “PBM E-score of 8-mer” value was -0.317 ± 0.045.
GGAAGCGA was tested, and the “PBM E-score of 8-mer” value was -0.0878 ± 0.0094.
With AAGGATAA the “PBM E-score of 8-mer” value was -0.0508 ± 0.026.
In the case of AGAAACGC, the “PBM E-score of 8-mer” value is reported as 0.0541 ± 0.04.
With ATGTCCGG the “PBM E-score of 8-mer” value was -0.174 ± 0.071.

From the supplement of paper PMC4166925
